{
  "source": "paper PMC4336329",
  "about": "(PLoS ONE, 2015)",
  "note": "Hit rate of the full screen: of about 310,000 compounds, about 2,200 (0.71%) showed an effect of 50% or more. The effect is printed as a negative number. Some of the results follow.",
  "data": [
    {"target": "human ether-à-go-go-related gene (hERG) potassium channel (human, UniProt Q12809)", "sequence (Q12809 whole entry, looked up)": "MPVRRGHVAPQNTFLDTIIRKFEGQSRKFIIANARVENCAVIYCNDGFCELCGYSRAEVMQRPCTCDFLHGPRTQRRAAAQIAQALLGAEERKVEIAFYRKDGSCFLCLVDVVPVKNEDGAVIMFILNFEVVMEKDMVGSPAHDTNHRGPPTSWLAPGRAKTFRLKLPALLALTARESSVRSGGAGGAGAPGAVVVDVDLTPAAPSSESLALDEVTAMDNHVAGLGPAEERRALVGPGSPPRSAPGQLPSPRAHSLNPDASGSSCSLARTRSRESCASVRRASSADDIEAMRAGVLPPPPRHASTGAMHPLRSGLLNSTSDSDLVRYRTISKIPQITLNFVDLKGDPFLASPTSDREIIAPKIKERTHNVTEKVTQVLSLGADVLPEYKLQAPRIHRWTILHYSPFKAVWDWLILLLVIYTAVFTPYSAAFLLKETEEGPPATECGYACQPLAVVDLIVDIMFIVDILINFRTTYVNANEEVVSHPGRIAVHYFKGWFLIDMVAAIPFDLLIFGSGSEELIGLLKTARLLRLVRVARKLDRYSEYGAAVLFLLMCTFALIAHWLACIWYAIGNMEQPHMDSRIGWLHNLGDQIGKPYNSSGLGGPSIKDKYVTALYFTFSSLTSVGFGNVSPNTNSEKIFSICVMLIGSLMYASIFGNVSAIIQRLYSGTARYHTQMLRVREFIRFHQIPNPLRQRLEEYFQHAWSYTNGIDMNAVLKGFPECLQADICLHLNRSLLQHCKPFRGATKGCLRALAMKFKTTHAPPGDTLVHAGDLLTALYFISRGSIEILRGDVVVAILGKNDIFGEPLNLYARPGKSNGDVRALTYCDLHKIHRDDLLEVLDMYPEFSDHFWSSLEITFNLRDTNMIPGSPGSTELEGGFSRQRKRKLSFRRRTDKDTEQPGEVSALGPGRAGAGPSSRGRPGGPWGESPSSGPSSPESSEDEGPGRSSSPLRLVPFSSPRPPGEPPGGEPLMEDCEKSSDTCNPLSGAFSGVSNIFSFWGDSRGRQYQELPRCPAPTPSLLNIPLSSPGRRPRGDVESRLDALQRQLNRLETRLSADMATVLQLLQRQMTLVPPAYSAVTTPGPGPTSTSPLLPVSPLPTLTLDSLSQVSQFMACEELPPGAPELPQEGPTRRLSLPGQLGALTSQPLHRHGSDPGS", "assay": "primary screen, population patch clamp on CHO cells stably expressing hERG", "units": {"hERG current change (%, negative = inhibition) at 1uM": "%"}, "values": [
      {"compound": "COCc1ccc(C(=O)N(C)CC2CCCN(CCc3ccc(OC)cc3)C2)o1", "note": "(stereo not drawn)", "hERG current change (%, negative = inhibition) at 1uM": -38.5},
      {"compound": "COc1ccc2c(c1)c(C(=O)CN1CCC(C(N)=O)CC1)c(C)n2C", "hERG current change (%, negative = inhibition) at 1uM": 12.1},
      {"compound": "CCNc1c(N)c(=O)oc2ccccc12", "hERG current change (%, negative = inhibition) at 1uM": 9.55},
      {"compound": "CC(c1nnc(SCC(=O)c2c(N)n(C3CC3)c(=O)[nH]c2=O)n1-c1ccc(F)cc1)N(C)C", "note": "(stereo not drawn)", "hERG current change (%, negative = inhibition) at 1uM": 7.83},
      {"compound": "CN(C(=O)c1ccc(NC(=O)Cc2cccc(NC(=O)C3CCCN(C(=O)C4CCCCC4)C3)c2)cc1)C1CCCC1", "note": "(stereo not drawn)", "hERG current change (%, negative = inhibition) at 1uM": 11.5},
      {"compound": "Cc1ccc(Oc2cc(-n3nc(C)cc3C)ncn2)cc1", "hERG current change (%, negative = inhibition) at 1uM": -7.39},
      {"compound": "COc1ccccc1CNC(=O)c1cc(C(C)C)nc2ccccc12", "hERG current change (%, negative = inhibition) at 1uM": 6.74},
      {"compound": "Cc1ccc([N+](=O)[O-])cc1S(=O)(=O)NCC1COc2ccccc2O1", "note": "(stereo not drawn)", "hERG current change (%, negative = inhibition) at 1uM": 15.9},
      {"compound": "CCCN1C(=O)S/C(=C/c2ccc(N3CCOCC3)o2)C1=O", "hERG current change (%, negative = inhibition) at 1uM": 11.3},
      {"compound": "COc1ccc(C(CNC(=O)c2ccccc2C)N2CCCC2)cc1", "note": "(stereo not drawn)", "hERG current change (%, negative = inhibition) at 1uM": -8.13},
      {"compound": "CN(Cc1nc2ccccc2[nH]1)C(=O)C1CCC(=O)N(C2CCCC2)C1", "note": "(stereo not drawn)", "hERG current change (%, negative = inhibition) at 1uM": 5.03},
      {"compound": "CC1(C)CC(=O)C2=C(C1)OC(N)=C(C#N)C2CCc1ccccc1", "note": "(stereo not drawn)", "hERG current change (%, negative = inhibition) at 1uM": 3.79},
      {"compound": "COc1ccc(NC(=O)C(NC(=O)OC(C)(C)C)C(C)OCc2ccccc2)cc1", "note": "(stereo not drawn)", "hERG current change (%, negative = inhibition) at 1uM": 10},
      {"compound": "O=C(COC(=O)CCCSc1nc2ccccc2[nH]1)NC(=O)NC1CCCC1", "hERG current change (%, negative = inhibition) at 1uM": 5.77},
      {"compound": "Cc1ccccc1CN(c1ccc(C(=O)Nc2ccccc2C(=O)N2CCCC2)cc1)S(C)(=O)=O", "hERG current change (%, negative = inhibition) at 1uM": 9.37},
      {"compound": "Nn1c(=O)[nH]c2ccccc2c1=O", "hERG current change (%, negative = inhibition) at 1uM": 21.7},
      {"compound": "N#Cc1ccc(N2CCN(c3ccc(F)cc3)CC2)cc1", "hERG current change (%, negative = inhibition) at 1uM": 1.73},
      {"compound": "COc1ccccc1OC(C)C(=O)Nc1ccccc1C(=O)NCc1cccnc1", "note": "(stereo not drawn)", "hERG current change (%, negative = inhibition) at 1uM": 7.69},
      {"compound": "CNC(=O)c1ccc(CN(C)CC(=O)Nc2ccccc2C(=O)NC2CC2)cc1", "hERG current change (%, negative = inhibition) at 1uM": 6.09},
      {"compound": "N#Cc1ccc(C(=O)Nc2cccc3ncccc23)c(F)c1", "hERG current change (%, negative = inhibition) at 1uM": -6.72},
      {"compound": "Cc1nc2cc(NC(=O)Nc3cccc4ccccc34)ccc2n1C", "hERG current change (%, negative = inhibition) at 1uM": 10},
      {"compound": "CCCc1cc(=O)[nH]c(SCC(=O)Nc2ccc(OCc3ccccc3)cc2)n1", "hERG current change (%, negative = inhibition) at 1uM": 7.01},
      {"compound": "CS(=O)(=O)N(Cc1ccc(C(=O)NN=C2CCCCCC2)cc1)c1ccccc1", "hERG current change (%, negative = inhibition) at 1uM": 3.5},
      {"compound": "CC(=O)C1=C(O)C(=O)N(c2nccs2)C1c1ccc(F)cc1", "note": "(stereo not drawn)", "hERG current change (%, negative = inhibition) at 1uM": 11.1},
      {"compound": "COc1ccc2nc(C)cc(N3CCN(c4ccccc4)CC3)c2c1", "hERG current change (%, negative = inhibition) at 1uM": -29},
      {"compound": "O=C(Nc1ccccc1F)N(Cc1ccc(F)cc1)Cc1nc2ccccc2c(=O)[nH]1", "hERG current change (%, negative = inhibition) at 1uM": 12.7},
      {"compound": "O=C(Nc1ccc(N2CCOCC2)cc1)c1cc(-c2ccncc2)nc2ccccc12", "hERG current change (%, negative = inhibition) at 1uM": -21.8},
      {"compound": "C=C(C)CN(CC)c1ccc(N2C(=O)CCCC2=O)cc1[N+](=O)[O-]", "hERG current change (%, negative = inhibition) at 1uM": 18.9},
      {"compound": "Cc1cc(-c2ccc(NC(=O)[C@@H]3CCCC[C@@H]3C(=O)O)c(C)c2)ccc1NC(=O)[C@@H]1CCCC[C@@H]1C(=O)O", "hERG current change (%, negative = inhibition) at 1uM": 9.26},
      {"compound": "CCOC(=O)Cn1c2ccccc2c2nc3ccccc3nc21", "hERG current change (%, negative = inhibition) at 1uM": 6.91},
      {"compound": "O=C(CSCc1ccc(F)cc1)NCc1cccs1", "hERG current change (%, negative = inhibition) at 1uM": 4.9},
      {"compound": "O=P(CCl)(Nc1ccccc1)C(Cl)(Cl)Cl", "note": "(stereo not drawn)", "hERG current change (%, negative = inhibition) at 1uM": 10.7},
      {"compound": "Cc1ccc(NC(=O)Nc2nnc(-c3ccncc3)s2)cc1C", "hERG current change (%, negative = inhibition) at 1uM": 12.6},
      {"compound": "CN1C(=O)C(C)(C)c2cc(S(=O)(=O)N3CCCC(C(=O)NCc4ccccc4Cl)C3)ccc21", "note": "(stereo not drawn)", "hERG current change (%, negative = inhibition) at 1uM": 3.68},
      {"compound": "COc1ccccc1-n1c(=O)oc2ccc(Cl)cc2c1=O", "hERG current change (%, negative = inhibition) at 1uM": 8.82},
      {"compound": "COc1ccc(-c2csc(NC(=S)NC(=O)c3ccccc3)n2)cc1Br", "hERG current change (%, negative = inhibition) at 1uM": 5.56},
      {"compound": "O=C(COc1ccc([N+](=O)[O-])cc1)Nc1ccc(NC(=O)c2ccccc2)cc1", "hERG current change (%, negative = inhibition) at 1uM": 17.5},
      {"compound": "Nc1[nH]c(=O)[nH]c(=O)c1N=Nc1cccc(Cl)c1", "hERG current change (%, negative = inhibition) at 1uM": -2.79},
      {"compound": "COc1ccc(NC(=O)c2cc(S(=O)(=O)N3CCc4ccccc43)cn2C)cc1", "hERG current change (%, negative = inhibition) at 1uM": 6.13},
      {"compound": "O=C(N/N=C/C=C/c1ccco1)/C(=C/c1ccccc1)NC(=O)c1ccccc1", "hERG current change (%, negative = inhibition) at 1uM": -11.6},
      {"compound": "CCN(C(=O)C1CCN(S(=O)(=O)c2ccc3c(c2)oc(=O)n3C)CC1)c1cccc(C)c1", "hERG current change (%, negative = inhibition) at 1uM": 9.72},
      {"compound": "CS(=O)(=O)N(CC(=O)Nc1ccccc1C(=O)N1CCOCC1)c1ccc(Cl)cc1", "hERG current change (%, negative = inhibition) at 1uM": 11.5},
      {"compound": "COc1ccccc1C(=O)Nc1ccnn1C1CCN(CCC(C)c2ccc(C)o2)CC1", "note": "(stereo not drawn)", "hERG current change (%, negative = inhibition) at 1uM": -88.2},
      {"compound": "CC1=NN(C(=O)COc2ccccc2C)C(O)(c2ccc(Cl)cc2)C1", "note": "(stereo not drawn)", "hERG current change (%, negative = inhibition) at 1uM": 9.7},
      {"compound": "CCc1cc(C(=O)c2ccc(Br)cc2)c(NC(=O)CN(CC)CC)s1", "hERG current change (%, negative = inhibition) at 1uM": -0.0255},
      {"compound": "COc1ccc(CCn2c(Br)nc3c2c(=O)[nH]c(=O)n3C)cc1", "hERG current change (%, negative = inhibition) at 1uM": 1.97},
      {"compound": "C=CCN1C(=O)CN=C1Nc1cc(C)cc(C)c1.Cl", "hERG current change (%, negative = inhibition) at 1uM": 8.44},
      {"compound": "CCOC(=O)C1=C(C)N=C(/N=C/N(C)C)SC1c1ccccc1", "note": "(stereo not drawn)", "hERG current change (%, negative = inhibition) at 1uM": 23.6},
      {"compound": "Cc1onc(-c2c(F)cccc2Cl)c1C(=O)OCC(=O)c1c(N)n(C)c(=O)n(C)c1=O", "hERG current change (%, negative = inhibition) at 1uM": 10.2},
      {"compound": "CC1CN(CCC(=O)Nc2ccc3c(c2)OCO3)CC(C)O1.Cl", "note": "(stereo not drawn)", "hERG current change (%, negative = inhibition) at 1uM": 5.92},
      {"compound": "CC(=O)N1CC2(c3ccccc3)CN(C(C)=O)CC(c3ccccc3)(C1)C2=O", "hERG current change (%, negative = inhibition) at 1uM": 1.19},
      {"compound": "O=C(O)C1CSC2(c3ccc4c(c3)OCCO4)CCC(=O)N12", "note": "(stereo not drawn)", "hERG current change (%, negative = inhibition) at 1uM": 9.84},
      {"compound": "COc1ccccc1CCNC(=O)c1cc(COc2cccc(C(F)(F)F)c2)on1", "hERG current change (%, negative = inhibition) at 1uM": 14.9},
      {"compound": "C=CCn1c(O)c(C(C)=NCCC(c2ccccc2)c2ccccc2)c(=O)[nH]c1=O", "hERG current change (%, negative = inhibition) at 1uM": -1.45}
    ]}
  ]
}
